# Whole data set: some 33,000 sequences, median “E-score (dimensionless, -0.5 to 0.5)” near -0.058, cut for the highest 2% near 0.35. This is one part of the list.
# Test system: MvaT
# Assay: PBM 8-mer E-score (mean of HK and ME arrays) (E-score (dimensionless, -0.5 to 0.5)); higher = stronger relative binding preference; most listed sequences are background and not binding sites
# Protocol: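 Protein binding microarray: GST-tagged full-length MvaT (P. aeruginosa PAO1) bound to two universal double-stranded 60-mer arrays (ME and HK), each with a constant 25-mer primer and a variable 35-mer region covering all 8-mers. The 8-mer E-score (rank-based, range -0.5 to 0.5, >0.45 = specific binding) is the mean of the two arrays.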
row,Sequence,PBM 8-mer E-score
1,GCACGAGA,-0.211
2,GCCGGTTA,-0.0226
3,AGCTCCAG,-0.147
4,CCGCGATA,0.146
5,CATTTTAA,0.176
6,CCATCGGC,-0.331
7,CTCTTCAC,-0.188
8,AATAATCA,0.259
9,GCTTTTGA,0.0712
10,CATCATGG,-0.198
11,CAATTAGA,0.202
12,CACGTGAC,-0.13
13,GTTACGTA,0.0162
14,CATAGAAA,0.0586
15,ATGCAGGA,0.0212
16,GCTAGACC,-0.255
17,CAGCGACG,-0.218
18,AGCGATCC,-0.318
19,GCTCTGGA,-0.255
20,AGCTCCCT,-0.258
21,AACGATGT,0.0302
22,CAGGCATG,-0.203
23,CCACACAG,-0.0107
24,ATACATAA,0.336
25,GCCATATA,0.252

row,Sequence,PBM 8-mer E-score
1,CGCAAGAC,-0.0404
2,GCGGGATA,0.052
3,AGGAGACG,-0.326
4,ACGGAGGG,-0.318
5,CCTGTACA,-0.0494
6,AGTTACCA,0.0856
7,AGCATGGC,-0.286
8,CATGTGCA,-0.0963
9,CCAATTCA,-0.0716
10,CTTAAGTA,0.263
11,GGTAAATA,0.254
12,CGTGTTTC,-0.141
13,TCGCCGAA,-0.0535
14,TCCTCCGA,-0.337
15,ATATCAGA,0.253
16,GTAGATAA,0.201
17,ATTCTCTA,0.149
18,CCAGATGC,-0.318
19,GACGCCCC,-0.319
20,TAAGTCCA,0.102
21,ACACAAGT,0.178
22,CCAAAGAC,-0.0607
23,AAGCGTAG,-0.0582
24,AATGAGAT,0.0638
25,ATAACCAG,0.157

row,Sequence,PBM 8-mer E-score
1,ATCGCCAG,-0.0593
2,TACTGTGA,0.147
3,CTCGGGAC,-0.238
4,ACTGGGCG,-0.162
5,ACGGTGCA,-0.128
6,CAAGTGCC,-0.186
7,ACGTTGTA,0.0394
8,GGGACACC,-0.281
9,AGCAATCC,-0.0831
10,ACCGATAG,-0.0239
11,CCGGACCG,-0.222
12,TACAAAGA,0.216
13,GCTTGAAC,-0.0741
14,CATCAGAG,-0.181
15,CCGGCGGA,-0.22
16,CCAGGAAC,-0.144
17,ATGCGGGG,-0.305
18,CTCATTTA,0.172
19,CAATATTC,0.226
20,AACGGATT,0.0835
21,AGGTCCAA,-0.286
22,CAGGATAA,0.211
23,CCTCGGAG,-0.225
24,AGCCAGAA,-0.157
25,TCAAGGCA,-0.0735

row,Sequence,PBM 8-mer E-score
1,GCAATGGC,-0.264
2,AGACAGTC,-0.169
3,AACTGAAG,-0.0971
4,TAGTCGCA,0.0954
5,ACTGTCCC,-0.0488
6,AAGAGGGC,-0.182
7,CGAATGCG,-0.119
8,TAATAAAA,0.389
9,GCCAAAAC,-0.0792
10,CACACCCG,-0.157
11,CTCAGCCA,-0.283
12,AACGCTAT,0.0338
13,ACGATCCT,-0.173
14,CAGGGCCA,-0.181
15,CTGATTTC,-0.166
16,CCTGGAAC,-0.159
17,GGGTGCAC,-0.196
18,CCAGATCA,-0.131
19,GTCTCTCA,-0.195
20,ATAATACC,0.333
21,CGTCCGCC,-0.255
22,GATGCGGA,-0.0685
23,CCTGGCCA,-0.208
24,ATCGTCGA,-0.0341
25,GCTAGAAC,-0.0509

row,Sequence,PBM 8-mer E-score
1,AGGTCAAC,-0.0391
2,GGTAATGA,-0.0124
3,GGGCTGCA,-0.11
4,GGCTGTAC,-0.12
5,ATCGACCC,-0.173
6,AAGGATGG,-0.00153
7,AAATGTTA,0.319
8,CAAATTAG,0.18
9,GAGATCGC,-0.123
10,CATCCTGA,-0.222
11,CCATGGTA,-0.103
12,ACGGTGAG,-0.204
13,TACCGCAA,0.113
14,CCTCTGAG,-0.251
15,CCCCCAAA,-0.305
16,AGAAACGA,-0.0393
17,ATGCCCCG,-0.125
18,ACATCCCC,-0.295
19,ACACGTTG,-0.255
20,AAGCGGAG,-0.193
21,CCCATCTC,-0.155
22,CTCCGTAA,-0.0332
23,CGCGACAG,-0.0696
24,CGCACAGA,-0.099
25,CTCGAGAG,-0.187

row,Sequence,PBM 8-mer E-score
1,GGATAACC,-0.118
2,AAGTTATC,0.256
3,CCTACTCA,-0.0563
4,CGTTTCCC,-0.091
5,AATGTACC,0.186
6,TGAACTAA,0.278
7,GAGGCCCA,-0.232
8,AGCCCCTA,-0.331
9,GTAGGAGA,-0.127
10,AAAGACAG,-0.0362
11,CCCAGTAG,-0.122
12,GGCATAAA,0.0713
13,ACAGTGAA,-0.0365
14,GACCTGAC,-0.304
15,AGAGGGCG,-0.276
16,ACTATCAA,0.191
17,CCAGCCGA,0.0177
18,CGGAACTC,-0.0386
19,AATAGACC,0.00124
20,GATGTCAC,-0.11
21,ACCGTAAT,0.207
22,ATGAGAAC,-0.0281
23,ATCATGAC,0.0406
24,ACAAGCGG,-0.0943
25,CTTTTTAA,0.213

row,Sequence,PBM 8-mer E-score
1,CGGCGTCA,-0.198
2,CTCTGCAG,-0.191
3,AAGATCTT,0.0451
4,CTCGTTTA,0.126
5,CGTTTCCA,-0.000895
6,CCCTTGAC,-0.224
7,CAACTATG,0.273
8,CAGGACTA,-0.0646
9,CGATTTCA,-0.0753
10,GTAATCGA,0.0452
11,AGTGGCTA,-0.14
12,ACGAACAC,-0.032
13,TGGAAACA,0.0669
14,GAGATTCA,-0.0331
15,CCTAAAGA,0.0301
16,ATGTAAGC,0.0551
17,AGGCCTTA,0.0391
18,TATTATCA,0.404
19,CAATGACG,-0.195
20,GGATTTTA,0.112
21,CTACGTAG,-0.2
22,AAGCGTCT,-0.141
